Reference: PubChem BioAssay (NCI)
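48-hour exposure; five concentrations; linearly interpolated endpoints. Here, GI50 denotes the concentration required for 50% inhibition of growth. TGI denotes the concentration required for complete inhibition of growth.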

What follows are molecules tested on NCI-H322M lung (assay: DTP human tumour cell line panel, 48 h).

Point of comparison: O=[N+]([O-])c1ccc(-c2nc(N(CCO)CCO)c3ccccc3n2)o1, TGI 0.603 µM. Against it:
- Cc1ccc2ccc(=O)oc2c1 — higher, > 100 µM
- CCN(CC)CCOc1ccc(Nc2ncc3cc(-c4ccc(O)cc4)c(=O)n(C)c3n2)cc1 — 38-fold higher, 23.1 µM
- Nc1ccccc1/C=C\c1ccccc1 — higher, > 100 µM
- c1ccc2c(c1)CCN(C1=NCCO1)C2 — higher, > 10 µM
- Cc1ccc(S(=O)(=O)Nc2nc3ccccc3c(=O)n2C2CCCCC2)cc1 — higher, > 100 µM
- C=C1C(=O)O[C@@H]2C1C[C@@H](O)/C(C)=C/C/C=C(\C)CCC[C@H](C)[C@H]2OC(C)=O (stereo not given in full) — higher, > 100 µM
- O=C(O)CS(=O)c1ccc2c3c(cccc13)C(=O)c1ccccc1-2 (stereo not given) — higher, > 100 µM
- Nc1ccc(C(=O)c2ccc(N)c(Br)c2)cc1Br — higher, > 62.1 µM
- CC1(CCc2ccccc2)CC1(Br)Br (stereo not given) — higher, > 100 µM
- COc1ccc(-c2cc(C3CC3)nc(SCC(=O)O)c2C#N)cc1 — higher, > 100 µM
- CCOC(=O)CCCn1c(SC)nc2cc(-c3ccco3)[nH]c2c1=O — higher, > 100 µM
- Cc1cc(O)c(C(=O)CC2(O)C(=O)Nc3c(Cl)cc(Cl)cc32)c(=O)o1 (stereo not given) — higher, > 100 µM
- COc1ccc2nc(-c3ccccc3)cc(Nc3ccc(C(C)=O)cc3)c2c1 — 32-fold higher, 19 µM
- Nc1nc(Nc2ccc3c(c2)CC[C@@H](N2CCCC2)CC3)nn1-c1cc2c(nn1)-c1ccccc1CCC2 — 4.1-fold higher, 2.47 µM
- COc1ccc2c([nH]c3cc(O)c(C)cc32)c1C=O — higher, > 25 µM
- CC(C)=CC(=O)Oc1ccc([N+](=O)[O-])cc1 — higher, > 100 µM
- OC12C3C4CC5C(C4[C@@H]1Br)C2[C@@](O)(c1c(F)c(F)c(F)c(F)c1F)C53 (stereo not given in full) — higher, > 100 µM
- CN(C)CC(/C(Cc1ccccc1)=N\NC(=O)c1ccncc1)c1ccccc1 (stereo not given) — higher, > 100 µM
- O=C1C=C(N2CCCC2)C(=O)c2c(O)ccc(O)c21 — higher, > 10 µM
- COc1ccc(C(=O)C(c2ccc(OC)cc2)C2(O)C(=O)Nc3c(C)cc(Cl)cc32)cc1 (stereo not given) — higher, > 100 µM
- C1CNCCNCCNCCN1 — higher, > 100 µM
- NC(CCl)=NC1CN2CCC1CC2 (stereo not given) — higher, > 100 µM
- Cc1ccc(S(=O)(=O)NC(=O)NC(Cc2ccccc2)C(=O)O)cc1 (stereo not given) — higher, > 100 µM
- COC(=O)COc1ccc(/C=C2\N=C(c3ccccc3)N(c3cc(C(F)(F)F)ccc3Cl)C2=O)cc1 — higher, > 100 µM
- O=C(CNC(=O)OCc1ccccc1)Oc1ccccc1 — higher, > 100 µM
- C=C1C[C@@H]2C/C=C/C(=O)C/C(C)=C\C=C\C(=O)O[C@H](C=O)C/C(C)=C/[C@H](C1)O2 — 33-fold higher, 19.6 µM
- Cn1ccc2c(NCCN)c3c(c(NCCN)c21)C(=O)c1ccccc1C3=O — 3.3-fold higher, 1.96 µM
- CCOP(=O)(CC1CC(O)(CNc2cc(Cl)nc(N)n2)C1)OCC (stereo not given) — higher, > 100 µM
- CN(NC(=O)CC(=O)NN(C)C(=S)c1ccccc1)C(=S)c1ccccc1 — higher, > 100 µM
- CC(=O)[C@H]1CC[C@H]2[C@@H]3CCC4=CC(=O)CC[C@]4(C)[C@H]3CC[C@]12C — higher, > 100 µM
- CC1(C)CC(=O)C2=C(C1)NC(SCC(=O)O)=C(C#N)C2c1ccc(Br)cc1 (stereo not given) — higher, > 100 µM
- c1ccc2c(c1)nc1n2CCNC1 — higher, > 100 µM
- O=C(O)C(F)(F)C(F)(F)C(F)(F)C(F)(F)C(=O)O — higher, > 100 µM
- COc1c(C)c2c(c(O)c1C/C=C(\C)CCC(=O)OCCN1CCOCC1)C(=O)OC2 — higher, > 100 µM
- CN(C)c1ccc(/C=N/n2c(-c3ccccc3)nc3ccccc3c2=O)cc1 — higher, > 100 µM
- Cc1ccc(C2(N3CCCC3)OC(C)(C)c3cccc4cccc2c34)cc1 (stereo not given) — 59-fold higher, 35.7 µM
- CCCc1ccc(S(=O)(=O)N[C@H]2CC[C@H]3[C@@H]4CCc5cc(O)ccc5[C@H]4CC[C@]23C)cc1 — 30-fold higher, 17.9 µM
- O=C1OC(C2Cc3ccccc3C2=O)c2ccccc21 (stereo not given) — higher, > 100 µM
- CCN(CC)c1ccc2c(c1)Oc1ccc(N(C(C)=O)c3ccccc3)cc1C21OC(=O)c2ccccc21 (stereo not given) — higher, > 100 µM
- Cc1ccc(C(=O)Cc2nc3ncccc3[nH]c2=O)cc1 — higher, > 100 µM

Point of comparison: C=C1C(=O)O[C@@H]2C1C[C@@H](O)/C(C)=C/C/C=C(\C)CCC[C@H](C)[C@H]2OC(C)=O (stereo not given in full), GI50 47.7 µM. Against it:
- CCN(CC)CCOc1ccc(Nc2ncc3cc(-c4ccc(O)cc4)c(=O)n(C)c3n2)cc1 — 11-fold lower, 4.37 µM
- Nc1ccc(C(=O)c2ccc(N)c(Br)c2)cc1Br — 17-fold lower, 2.75 µM
- CCOC(=O)CCCn1c(SC)nc2cc(-c3ccco3)[nH]c2c1=O — higher, > 100 µM
- COc1ccc2nc(-c3ccccc3)cc(Nc3ccc(C(C)=O)cc3)c2c1 — 12-fold lower, 3.99 µM
- c1ccc(C(=NNc2nc3ccccc3o2)c2ccccn2)nc1 — 990-fold lower, 0.048 µM
- Nc1nc(Nc2ccc3c(c2)CC[C@@H](N2CCCC2)CC3)nn1-c1cc2c(nn1)-c1ccccc1CCC2 — 46-fold lower, 1.03 µM
- COC(=O)COc1ccc(/C=C2\N=C(c3ccccc3)N(c3cc(C(F)(F)F)ccc3Cl)C2=O)cc1 — higher, > 100 µM
- C=C1C[C@@H]2C/C=C/C(=O)C/C(C)=C\C=C\C(=O)O[C@H](C=O)C/C(C)=C/[C@H](C1)O2 — 8.2-fold lower, 5.84 µM
- Cn1ccc2c(NCCN)c3c(c(NCCN)c21)C(=O)c1ccccc1C3=O — 130-fold lower, 0.374 µM
- CN(NC(=O)CC(=O)NN(C)C(=S)c1ccccc1)C(=S)c1ccccc1 — higher, > 100 µM
- O=[N+]([O-])c1ccc(-c2nc(N(CCO)CCO)c3ccccc3n2)o1 — 290-fold lower, 0.164 µM
- COc1c(C)c2c(c(O)c1C/C=C(\C)CCC(=O)OCCN1CCOCC1)C(=O)OC2 — 69-fold lower, 0.696 µM
- CCCc1ccc(S(=O)(=O)N[C@H]2CC[C@H]3[C@@H]4CCc5cc(O)ccc5[C@H]4CC[C@]23C)cc1 — 9.8-fold lower, 4.86 µM
